Target: misfolded tau seeds from postmortem Alzheimer's disease brain homogenates (human (endogenous in postmortem brain))
Test: cell-based or functional assay

RT-QuIC (ThT fluorescence): t1/2 of seeded aggregation of 12 uM substrate with AD brain homogenate: 37 h
B1: recombinant full-length wild-type human tau isoform 0N4R (natural protein)
chain: not shown
